# Data as given in the BET-seq Pho4 binding data (Le et al. 2018).
# This is one part of the list. These are noisy estimates, calculated here from bound and input reads.
# Target: T1, Pho4 (S. cerevisiae) (UniProt P07270)
# T1 sequence: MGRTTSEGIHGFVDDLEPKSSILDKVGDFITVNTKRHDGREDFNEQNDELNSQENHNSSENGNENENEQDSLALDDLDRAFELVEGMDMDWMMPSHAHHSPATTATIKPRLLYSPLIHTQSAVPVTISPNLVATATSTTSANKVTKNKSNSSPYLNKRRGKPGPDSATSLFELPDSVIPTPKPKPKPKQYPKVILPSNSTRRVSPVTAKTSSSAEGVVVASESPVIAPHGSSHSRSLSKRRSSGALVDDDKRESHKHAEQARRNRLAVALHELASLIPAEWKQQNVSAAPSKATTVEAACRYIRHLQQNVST
# Test: relative binding free energy (BET-seq); higher = weaker binding
# Details: reference: library average
row,Sequence,relative binding free energy [kcal/mol]
1,GACTTCACGTGTTTTG,0.23
2,AGCTGCACGTGGGCTG,-0.07
3,AGTTCCACGTGGGAGT,-0.16
4,TTGGTCACGTGTTGCC,0.14
5,CTTTTCACGTGTATTG,0.24
6,TTAGTCACGTGCTCTT,0.15
7,AGTAGCACGTGTAGAT,0.08
8,GAGTTCACGTGTTTGG,0.24
9,AGGGCCACGTGTAAGG,0.04
10,GGTTCCACGTGTGTGG,0.07
11,GTACTCACGTGGGTGT,0.03
12,TTTCACACGTGTATTT,0.05
13,GTTTACACGTGTGTTA,0.23
14,TATAACACGTGGTTAA,-0.04
15,AAGATCACGTGGGCGT,0.1
16,CGTTCCACGTGGGTTT,-0.02
17,ATAGACACGTGACTGG,0.06
18,TGAGTCACGTGGCAGT,-0.06
19,ATTCTCACGTGGGAGG,0.09
20,GTGTTCACGTGCTTAT,0.27
21,GTATGCACGTGAACGT,0.12
22,ATAATCACGTGTATAG,0.12
23,TTAACCACGTGTGTAT,-0.03

row,Sequence,relative binding free energy [kcal/mol]
1,ACGGTCACGTGTATTG,0.08
2,AAAATCACGTGGGGAG,-0.01
3,CATATCACGTGTTTTG,0.26
4,TTTGCCACGTGGTAGG,-0.18
5,TGTCTCACGTGTAGAT,0.21
6,GTGTGCACGTGGATGG,0.08
7,GGTGACACGTGGCGAG,-0.12
8,GGTGTCACGTGCTGGG,0.13
9,GGGGACACGTGTGGAC,0.09
10,GTCGGCACGTGTGAGG,0.15
11,TAAGGCACGTGCGAGG,-0.15
12,AGGCACACGTGTTGGT,0.17
13,TGAGTCACGTGCTGGG,0.1
14,TTTTGCACGTGTCGAT,-0.02
15,ACGTACACGTGTTTTG,0
16,TTTGACACGTGGGTGC,-0.16
17,CTTCGCACGTGAGGTG,0.23
18,CTTGTCACGTGATAGT,0.04
19,GCGTGCACGTGGGAGA,-0.04
20,ATACACACGTGGGGTG,-0.28
21,TGAGTCACGTGAGGAC,0.4
22,CTGTGCACGTGGGCTA,-0.19
23,GTGGCCACGTGTGGCT,-0.08

row,Sequence,relative binding free energy [kcal/mol]
1,TTTGTCACGTGTTCGT,0.14
2,GGTTGCACGTGATGCC,0.22
3,CATTTCACGTGGGGTA,0.06
4,ATTGTCACGTGGTCAC,0.08
5,CGTAGCACGTGTAAGT,-0.02
6,TGGGACACGTGTATGT,-0.02
7,GGTACCACGTGTGGGG,-0.01
8,TAATTCACGTGTCTGG,0.25
9,TTCGTCACGTGTGTTA,0.15
10,GGAAACACGTGGGTCG,-0.08
11,CTGTTCACGTGGTGGG,0.22
12,GGTTTCACGTGAGACT,0.44
13,GAAGTCACGTGTGTTG,0.17
14,TGTCGCACGTGATATG,0.01
15,TGGTTCACGTGGTAAT,0.29
16,TTTGTCACGTGTCTTC,0.26
17,GTCGCCACGTGGTGTG,-0.08
18,TTACGCACGTGAGGTG,-0.02
19,GATTTCACGTGGTGCC,0.55
20,TCGTGCACGTGGGATG,-0.06
21,TGGAACACGTGGTCTG,0.04
22,TTGCTCACGTGGTTCG,0.05
23,GGGCGCACGTGTGGAC,-0.03

row,Sequence,relative binding free energy [kcal/mol]
1,CATTCCACGTGTGGTG,0.07
2,GATGGCACGTGGGGAA,-0.1
3,GTTTTCACGTGCCGTG,0.32
4,CGTGGCACGTGTGAAA,-0.03
5,CGTGTCACGTGGCTGG,-0.08
6,GGATGCACGTGTTGCG,-0.03
7,TCGATCACGTGAGTTG,0.16
8,GTTGGCACGTGTTACT,-0.19
9,TTAGGCACGTGTCTGA,-0.09
10,TGAGGCACGTGAAAGA,0.13
11,TGTTTCACGTGGGCTG,0.22
12,TATGGCACGTGAATAA,0.17
13,CATTCCACGTGTTGGG,0.1
14,ATGTTCACGTGCGGGA,0.24
15,CGGGGCACGTGGTAAA,-0.16
16,TTGACCACGTGTGGTA,-0.01
17,GATCGCACGTGCGGGG,-0.1
18,GCGGGCACGTGTCGTG,-0.04
19,TGATTCACGTGCAAGG,0.23
20,ATTATCACGTGTCAGG,0.03
21,AGGTACACGTGCGTTG,0.04
22,GATGGCACGTGTTAAG,-0.02
23,TGGGGCACGTGGACAA,-0.17

row,Sequence,relative binding free energy [kcal/mol]
1,GATTACACGTGGTGTT,0.2
2,TGATGCACGTGATGGT,0.06
3,ATAGTCACGTGTAAGT,0.17
4,ATCTGCACGTGGGTGT,-0.16
5,TTCTGCACGTGGAGCT,0.15
6,GGATGCACGTGTCAGT,0.16
7,GAGATCACGTGGGTTC,0.16
8,GTCGACACGTGGTGGA,0.04
9,AGATGCACGTGTTAAT,-0.04
10,TATCTCACGTGAATGT,0.42
11,TTGAGCACGTGGGCCG,-0.16
12,GTATGCACGTGGCATG,-0.14
13,CTGCGCACGTGGAGGG,-0.19
14,AAATGCACGTGTAATG,0.04
15,CGTTTCACGTGTGCGA,0.25
16,TTGTACACGTGCGGGT,0.07
17,TTTAGCACGTGGCTTG,-0.05
18,GGGTGCACGTGTCGGT,0.18
19,GAGGTCACGTGAGATT,0.41
20,GTTTCCACGTGGGATG,-0.09
21,ATAGCCACGTGTTTGG,-0.22
22,TAGAACACGTGAAGGG,0.25
23,GAGGGCACGTGTGTTT,-0.07
